# In the RNAGym collection of RNA variant scans (doi:10.7554/elife.90254):
# Read counts are not given, so values of variants with three or more changes are uncertain.
# B1: OR4K15 (parent)
# chain: GUUAACGGUCAUAGGCCAUGGAAACUAGGAGCACCAUUUCGCUGCCAGUGAAGAAAUGAACAAAGAAAAUCUGGGCCAGGCAGGCAUCAAAAGAAAUAGUCUUGCGCUCAACCAGAAAGUCUGUAAUCAUUUUAAGGGUA
# Variants of: B1
# Experiment: self-cleavage, relative activity (ratio to wild type); higher = more cleavage; in vitro, sequencing; the parent is a self-cleaving ribozyme
row,Variant,self-cleavage
1,GAUAACGGUCAUAGGCCAUGGAAACUAGGAGCACCAUUUCGCUGCCAGUGAAGAAAUGAACAAAGAAAAUCUGGGCCAGGCAGGCAUCAAAAGAAAUAGUCUUGCGCUCCACCAGAUAGUCUGUAGUCAUUUUAAGGGUA [U2A A110C A117U A126G],0.1
2,GAUAACGGUCAUAGGCCAUGGAAACUAGGAGCACCAUUUCGCUGCCAGUGAAGAAAUGAACAAAGAAAGUCUGGGCCAGGCAGGCAUCAAAAGAAAUAGUCGUGCGCUCAACCAGAAAGUCUGUAACCAUUUUAAGGGUA [U2A A69G U102G U127C],0.74
3,GAUAACGGUCAUAGGCCAUGGAAACUAGGAGCACCAUUUCGCUGCCAGUGAAGAAAUGAACAAAGUAAAUCUGGGCCAGGCAGGCAUCAAAAGAUAUAGUCUUGCGCUCAACCAGAAAGUCUGUAAUCAAUUUAAGGGUA [U2A A66U A95U U130A],1.18
4,GAUAACGGUCAUAGGCCAUGGAAACUAGGAGCACCGUUUCGCCGCCAGUGAAGAAAUGAACAAAGAAAAUCUGGGCCAGGCAGGCAUCAAAAGAAAUAGUCUUGCGCUCAACCAGAAAGUCUGUAAUCAUUUUAAGGGUA [U2A A36G U43C],0.87
5,GAUAACGGUCAUAGGCCAUGGAAACUAGGAGCACCAUUUCGCUGCCAGUGAAGAAAUGAACAAAGUAAAUCUGGGCCAGGCGGGCACCAAAAGAAAUAGUCUUGCGCUCAACCAGAAAGUCUGUAAUCACUUUAAGGGUA [U2A A66U A82G U87C U130C],0.05
6,GAUAACGGUCAUAGGCCAUGGAAACUAGGAGCACCAUUUCGCUGCCAGUGAAGAGAUGAACAAAGAAAAUCUGGGCCAGGCAGGCAUCGAAAGAAAUAGUCUUGCGCUCAACCAGAAAGUCUGUAAUCAUUUUAAGGGUA [U2A A55G A89G],0.93
7,GAUAACGGUCAUAGGCCAUGGAAACUAGGAGCACCAUUUCGCUGCCAGUGUGGAAACGAACAAAGAAAAUCUGGGCCAGGCAGGCAUCAAAAGAAAUAGUCUUGCGCUCAACCAGAAAGUCUGUAAUCAUUUUAAGGGUA [U2A A51U A52G U57C],1.65
8,GAUAACGGUCAUAGGCCAUGGAAACUAGGAGCACCAUUUCGCUGCCAGUGGAGAAAUGAACAAAGAAAAUCUGGGCCAGGCAGGCAUCAAAAGAAAUAGUCUUGCGCUCAACCAGAAAGUCUGUAACCAUUUUAAGGGUA [U2A A51G U127C],0.25
9,GAUAACGGUCAUAGGCCAUGGAAACUAGGAGCACCAUUUCGCUGCCAGUGAAGAAAUGAACUAAGAAGAUCUGGGCCAGGCAGGCAUCAAAAGAAAUAGUCUUGCGCUCAACCAGAAAGUCUGUAAUCAUUUUAAGGGUA [U2A A62U A68G],1.21
10,GAUAACGGUCAUAGGCCAUGGAAACUAGGAGCACCAUUUCGCUGCCAGUGAAGAAAUGAACAAAGAAAAUCUGGGCCAGGCAGGCAUCAAAAGGAAUAGUCUCGCGCUCAACCAGAAAGUCUGUAAUCAUUUUAAGGGUA [U2A A94G U103C],0.79
11,GAUAACGGUCAUAGGCCAUGGAAACUAGGAGCACCAUUUCGCUGCCAGUGAGGAAAUGAACGAAGAAAAUCUGGGCCAGGCAGGCAUCAAAAGAAAUAGUCUUGCGCUCAACCAGGAAGUCUGUAAUCAUUUUAAGGGUA [U2A A52G A62G A116G],0.95
12,GAUAACGGUCAUAGGCCAUGGAAACUAGGAGCACCAUUUCGCUGCCAGUGAAGAAAUGAACAAAGAAAAUCUGGGCCAGGCAGGCAUCAGAAGAAAUAGUCUUGCGCUCAACCAGGAAGUCUGUAAUCAUUUUAAGGGUA [U2A A90G A116G],0
13,GAUAACGGUCAUAGGCCAUGGAAACUAGGAGCGCCAUUCCGCUGCCAGUGAAGAAAUGAACAAAGAAAAUCUGGGCCAGGCAGGCAUCAAAAGAAAUAGUCUUGCGCUCAACCAGAAAGUCUGUAAUCAUCUUAAGGGUA [U2A A33G U39C U131C],0.33
14,GAUAACGGUCAUAGGCCAUGGAAACUAGGAGCACCAUUUCGCUGCCAGUGAAGAAAUGAACAAAGAAAAUCUGGGCCAGGCGGGCAUCAAAAGAAAUAGUCCUGCGCUCAACCAGAAAGCCUGUAAUCAUCUUAAGGGUA [U2A A82G U102C U120C U131C],0.57
15,GAUAACGGUCAUAGGCCAUGGAAACUAGGAGCACCAUUUCGCUGCCUGUGAAGAAAUGAACAAAGAAAAUCUGGGCCAGGCAGGCAUCAAAAGAAAUAGUCUUGCGCUCAACCAGUAAGUCUGUAAUCAUUUUAAGGGUA [U2A A47U A116U],0.23
16,GAUAACGGUCAUAGGCCAUGGAAACUAGGAGCACCAUUUCGCUGCCAGUGAAGAAAUGGACAAAGAAAAUCUGGGCCAGGCAGGCAUCAAAAGAAAUAGUCUUGCGCUCAACCGGAAAGUCUGUAGUCAUUUUAGGGGUA [U2A A59G A114G A126G A135G],0.09
17,GAUAACGGUCAUAGGCCAUGGAAACUAGGAGCACCAUUUCGCUGCCAGUGAAGAAGUGAGCAAAGAAAAUCUGGGCCUGGCAGGCAUCAAAAGAAAUAGUCUUGCGCUCAACCAGAAAGUCUGUAAUCAUUUUAAGGGUA [U2A A56G A60G A78U],0.22
18,GAUAACGGUCAUAGGCCAUGGAAACUAGGAGCACCAUUUCGCUGCCAGUGGAGAAAUGAACAGAGAAAAUCUGGGCCAGGCAGGCAUCAAAAGAAAUAGUCUUGCGCUCAACCAGAAAGUCUGUAAUCAUUUUAAGGGUA [U2A A51G A63G],0.89
19,GAUAACGGUCAUAGGCCAUGGAAACUAGGAGCGCCAUUUCGCUGCCAGUGAAGAAACGAACAAAGAAAAUCUGGGCCAGGCGGGCAUCAAAAGAAAUAGUCUUGCGCUCAACCAGAAAGUCUGUAAUCAUUUUAAGGGUA [U2A A33G U57C A82G],0.46
20,GAUAACGGUCAUAGGCCAUGGAAACUAGGAGCACCAUUUCGCUGCCAGUGAAGAAAUGAACAAAGAAAAUCUGGGCCAGGCAGGCGUCAAAAGAAAUAGUCAUGCGCUCAACCAGAAAGUCUGUAAUCAUUUUAAGGGUA [U2A A86G U102A],1.24
21,GAUAACGGUCAUAGGCCAUGGAAACUAGGAGCACCGUUUCGCUGCCAGCGAAGAAAUGAACAAAGAAAAUCUGGGCCAGGCAGGCAUCAAAAGAAAUAGUCUUGCGCUCAACCAGAAAGUCUGUAAUCAUUUUAAGGGUA [U2A A36G U49C],2.67
